From PubChem BioAssay AID1745847 (National Center for Advancing Translational Sciences (NCATS), 2022)
Among all 2,100 compounds or so, about 670 (32%) were called active. Inconclusive results, whose numbers are uncertain, are shown with a selection of clear calls. Calls come from the whole dose curve; as a rule, active = well fitted inhibition curve with a large enough effect; inconclusive = small, poorly fitted or top-dose-only effect; inactive = no such curve, though single readings can be large or run the other way. A potency beside an inconclusive call is a rough fit, not a confirmed value.

Assay: CMV-Luciferase Counterscreen for Inhibitors of ATXN expression; note: nearly all actives have a fitted effect of over 55% in size
Settings: HEK-293 CMV-luciferase reporter, luminescence, 24 h; series mostly up to 57.5 µM; activity change, negative = inhibition: at the top concentration
% is set by controls: 0 for no effect and ±100 for the full control effect; potency is the fitted concentration of half-maximal effect; tags give direction and shape of the fitted curve.

Structure (SMILES) | Potency | activity change, negative = inhibition
O=C(CCCN1CCc2[nH]c3ccc(F)cc3c2C1)c1ccc(F)cc1 | inconclusive: 28.2 µM [inhibitor, single point] | –
N#Cc1c(NCCN)nc(-c2ccco2)c2c1CCCC2 | inconclusive: 20 µM [inhibitor, partial curve, poor fit] | –
CCOC(=O)Nc1ccc(N2CCOCC2)c(S(=O)(=O)Nc2ccc(Cl)cc2)c1 | inconclusive: 3.16 µM [inhibitor, single point] | –
CCn1c(/C=C/c2ccc([N+](=O)[O-])o2)nc2ccccc2c1=O | inconclusive: 39.8 µM [inhibitor, single point] | –
COc1ccc(/C=C2\CN(Cc3ccccc3)C/C(=C\c3ccc(OC)c(O)c3)C2=O)cc1O | inconclusive: 39.8 µM [inhibitor, single point] | –
CCn1c(CCC(=O)Nc2nc3c(s2)CCCC3)nc2cc(S(=O)(=O)N(C)C)ccc21 | – | inactive: 4.42% [at 11.4 µM]
CN1CCC(N(C)S(=O)(=O)c2ccc(NC(=O)COc3ccc(Br)cc3Cl)cc2)CC1 | inconclusive: 17.8 µM [inhibitor, single point] | –
CC1(C(=O)NCc2ccco2)CCN1C(=O)C1(c2ccccc2)CC1 (centres undefined) | – | inactive: -4.65% [at 11.4 µM]
Cc1nonc1C(=O)N/N=C/c1ccc(O)cc1O | inconclusive: 2.24 µM [inhibitor, partial curve] | –
CC(C)n1ncc2c(C(=O)N3CCN(Cc4ccc(Br)s4)CC3)cc(C3CC3)nc21 | inconclusive: 3.55 µM [inhibitor, partial curve, poor fit] | –
O=C(Cn1cnc([N+](=O)[O-])c1)Nc1cc(Oc2ccc(Cl)cc2Cl)cc([N+](=O)[O-])c1 | inconclusive: 2.24 µM [inhibitor, partial curve, poor fit] | –
O=C(Nc1cccc2cccnc12)c1csc(COCCO)n1 | – | inactive: 4.19%
O=c1c(Cc2ccccc2)c(O)nc2n1CCS2 | – | inactive: -22.8%
Cc1cc(C)c2nc(NNC(=O)c3ccc(S(=O)(=O)N4CC(C)CC(C)C4)cc3)sc2c1 (centres undefined) | inconclusive: 5.01 µM [inhibitor, full curve] | –
Clc1ccc2c(NCc3ccccc3)ccnc2c1 | active: 8.91 µM | –
CCC(=O)c1ccc(OCC(O)CN(CCc2ccccc2)Cc2ccccc2)cc1 (centres undefined) | inconclusive: 7.08 µM [inhibitor, single point] | –
CCCCn1c2ccc(F)cc2c2nnc(NN)nc21 | inconclusive: 20 µM [inhibitor, partial curve, poor fit] | –
CCOC(=O)[C@H]1[C@H]2COc3ccc(OC)cc3[C@@H]2N2C(=O)c3cc(OC)c(OC)cc3NC(=O)[C@@]12C | – | inactive: 6.45% [at 11.4 µM]
COc1ccc(-c2csc(Nc3ccc(S(N)(=O)=O)cc3)n2)cc1OC | inconclusive: 17.8 µM [inhibitor, partial curve] | –
COc1ccc(CC2C(=O)NC(C)C(=O)N(C)C3Cc4ccc(cc4)Oc4cc(ccc4O)CC(C(=O)NC(C)C(=O)NC(C)C(=O)N2C)N(C)C3=O)cc1 (centres undefined) | active: 0.891 µM | –
Cn1c(SCC(=O)Nc2cc(Cl)cc(Cl)c2)nnc1-c1ccc2nonc2c1 | – | inactive: -10.7% [at 11.4 µM]
CCCCC(=O)N(CCOC)c1nnc(-c2ccccc2C)s1 | – | inactive: -14.2%

Structure (SMILES) | Potency | activity change, negative = inhibition
CCOC(=O)N(C)c1c(CC)nc2c(OCc3ccccc3OC)cccn12 | inconclusive: 15.8 µM [inhibitor, partial curve, poor fit] | –
CC(C)Nc1nc(-c2ccccn2)nc(-c2ccccc2)c1C#N | – | inactive: -15.7%
CCN(CC)S(=O)(=O)c1ccc(C)c(NC(=S)N2CCN(c3ccccn3)CC2)c1 | inconclusive: 12.6 µM [inhibitor, partial curve] | –
NC(=O)c1c(NC(=O)c2ccc(S(=O)(=O)N3CCOCC3)cc2)sc2c1CCCCC2 | – | inactive: -13.6% [at 11.4 µM]
[O-][n+]1onc2c1CCc1c-2nn(-c2ccccc2Cl)[n+]1[O-] | inconclusive: 28.2 µM [inhibitor, partial curve, poor fit] | –
O=C(CNC(=O)C1COc2ccccc2O1)N/N=C/c1ccc(O)cc1O (centres undefined) | inconclusive: 2.82 µM [inhibitor, partial curve, poor fit] | –
C[C@@H]1CN([C@H](C)CO)S(=O)(=O)c2ccc(-c3ccc(C#N)cc3)cc2O[C@H]1CN(C)C(=O)Nc1cc(F)ccc1F | active: 12.6 µM | –
COc1cc(/C=C/c2ccc(/C=C/c3cc(OC)c(OC)c(OC)c3)cc2)cc(OC)c1OC | inconclusive: 39.8 µM [inhibitor, single point] | –
COc1ccc(C(=O)NNC(=S)NC(=O)c2ccccc2)cc1 | inconclusive: 10 µM [inhibitor, partial curve, poor fit] | –
Oc1c(Cl)cc(Cl)cc1/C=C/c1ccc2cccc(O)c2n1 | inconclusive: 7.08 µM [inhibitor, single point] | –
O=C(CNc1cccc(C(F)(F)F)c1)Nc1cccc(S(=O)(=O)N2CCCC2)c1 | inconclusive: 25.1 µM [inhibitor, partial curve, poor fit] | –
Cc1cc2oc3cc(NCCC4CCCN4C)ccc3c(=O)c2cc1C (centres undefined) | – | inactive: 108%
COc1ccc(C2CC(c3ccccc3C(F)(F)F)=NN2c2ccc(S(N)(=O)=O)cc2)cc1 (centres undefined) | inconclusive: 35.5 µM [inhibitor, single point] | –
COc1ccc(Cl)cc1S(=O)(=O)N1CCN(C(=O)c2n[nH]c(=O)c3ccccc23)CC1 | – | inactive: -26.4% [at 11.4 µM]
S=C(NCCCN1CCOCC1)N1CCN(c2nc(-c3ccccc3)cs2)CC1 | inconclusive: 8.91 µM [inhibitor, partial curve, poor fit] | –
CCCCCC(=O)N/N=C(\C)c1ccccn1 | inconclusive: 0.708 µM [inhibitor, full curve] | –
CC(Nc1ccccc1CO)C(=O)Nc1cccc(Cl)c1Cl (centres undefined) | inconclusive: 3.55 µM [inhibitor, full curve, poor fit] | –
Cn1c(CO)cnc1SCC(=O)c1ccc(Br)cc1 | inconclusive: 15.8 µM [inhibitor, partial curve, poor fit] | –
CC(O)(c1ccccc1)c1nc(-c2ccncc2)cs1 (centres undefined) | inconclusive: 3.98 µM [inhibitor, partial curve] | –
Cc1cc(C(=O)N/N=C/c2ccc([N+](=O)[O-])s2)n[nH]1 | inconclusive: 8.91 µM [inhibitor, full curve, poor fit] | –
Cc1cc(Cl)ccc1OCCCC(=O)NNC(=O)c1ccccc1O | inconclusive: 3.55 µM [inhibitor, partial curve, poor fit] | –
O=C(Nc1ccc(N2CCN(C(=O)c3ccco3)CC2)c(Cl)c1)c1cccs1 | active: 20 µM | –

Structure (SMILES) | Potency | activity change, negative = inhibition
Cc1cc(C)n2nc(C(=O)N/N=C/c3c4ccccc4cc4ccccc34)nc2n1 | inconclusive: 39.8 µM [inhibitor, single point] | –
CCCCC(=O)NNC(=S)NC(=O)c1ccc(C)cc1 | inconclusive: 6.31 µM [inhibitor, single point] | –
OCCNc1c2ccccc2nc2c(F)c(F)c(F)c(F)c12 | active: 7.94 µM | –
Cc1onc(-c2c(F)cccc2Cl)c1C(=O)Nc1nnc(C(F)(F)F)s1 | active: 1.41 µM | –
O=C(Nc1ccc(Cc2ccncc2)cc1)c1ccc(S(=O)(=O)N2CCCC2)cc1 | inconclusive: 1.41 µM [inhibitor, full curve] | –
Cc1nn(C)c(C)c1NC(=O)CSc1nc(Cc2ccccc2)nc2c1cnn2-c1ccccc1 | – | inactive: -7.1% [at 11.4 µM]
O=[N+]([O-])c1ccccc1S(=O)(=O)Nc1cccc2cccnc12 | inconclusive: 3.55 µM [inhibitor, full curve, poor fit] | –
Nc1ccc2c(c1)OC1(CCCC1)O2 | – | inactive: -27.3% [at 11.4 µM]
CN(C)c1nc(N/N=C/c2c[nH]c3ccccc23)nc(N2CCOCC2)n1 | – | inactive: -16.1% [at 11.4 µM]
O=C(CNC(=O)c1ccco1)N/N=C/c1cc(Br)ccc1O | inconclusive: 3.55 µM [inhibitor, full curve, poor fit] | –
CC(C)CC(=O)NC(=S)NNC(=O)c1ccc(NC(=O)C2CCCCC2)cc1 | – | inactive: 8.7% [at 11.4 µM]
Cn1nnnc1Sc1ncnc2scc(-c3ccccc3Br)c12 | inconclusive: 12.6 µM [inhibitor, partial curve, poor fit] | –
COc1ccc(Cn2cc3c(-c4ccc(F)cc4)nnc-3c3cc(OC)c(OC)cc32)cc1 | inconclusive: 5.01 µM [inhibitor, single point] | –
CC(C)c1cccc(C(C)C)c1Nc1cn[nH]c1 | – | inactive: -9.58% [at 11.4 µM]
COC(=O)c1ccc(Oc2nc(NC(C)C)nc(N(C)C)n2)cc1 | – | inactive: -22.6% [at 11.4 µM]
CCN(CC)CCNC(=O)c1ccc(NC(=O)c2ccc(Cl)c(S(=O)(=O)N3CCCCCC3)c2)cc1 | inconclusive: 12.6 µM [inhibitor, partial curve] | –
C[C@@H](CN1C2=NC[C@H](Cc3ccccc3)N2C[C@H]1Cc1ccc(O)cc1)NC(=O)CCC1CCCCC1 | inconclusive: 11.2 µM [inhibitor, partial curve, poor fit] | –
CC(C)(C)c1cc(C(=O)NNc2cc(C(F)(F)F)ccc2Cl)n(Cc2ccccc2)n1 | – | inactive: 24.6%
NC(Cc1ccccc1)c1csc(Nc2ccc(C(F)(F)F)cn2)n1 (centres undefined) | inconclusive: 35.5 µM [inhibitor, single point] | –
CCC(=O)NC(c1ccco1)c1cc(Cl)c2cccnc2c1O (centres undefined) | inconclusive: 1 µM [inhibitor, full curve] | –
